# Measured values as given in PubChem BioAssay AID1466 (National Center for Advancing Translational Sciences (NCATS), 2008).
# About 10 (0.005%) of roughly 200,000 compounds were called active. Inconclusive means that the source gave no clear call. Such entries were picked first, then a sample of the others. Calls follow the shape of the dose curve; as a rule, active = well fitted inhibition curve with a large enough effect; inconclusive = small, poorly fitted or top-dose-only effect, or effect the other way, or another doubt; inactive = no such curve, though single readings can be large or run the other way. Potencies of inconclusive entries are left out as doubtful fits.
# Biological target: Lysosomal alpha-glucosidase (Homo sapiens) (UniProt P10253)
# Experiment: qHTS Assay for Inhibitors of Human alpha-Glucosidase as a Potential Chaperone Treatment of Pompe Disease;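 as to activity change, negative = inhibition: plate controls were uninhibited enzyme wells for no effect and no-enzyme background for full effect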
# Details: purified human GAA, 4-MU-alpha-glucoside fluorescence; activity change, negative = inhibition: at 76.9 µM (top of the series) unless noted
# Procedure, shortened: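 Compounds are titrated up to 77 uM against 4 nM human enzyme. Substrate 4-methylumbelliferyl-alpha-D-pyranoside (400 uM) reacts 20 min at room temperature in pH 5.0 buffer; liberated 4-methylumbelliferone is read at 440 nm.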
# Potency is read from the fitted curve at half-maximal effect; tags tell the direction and shape of the fitted curve.
SMILES,Potency,"activity change, negative = inhibition"
CN(C)c1ccc(Nc2c3c4c(cccc4n(C)c2=O)C(=O)c2ccccc2-3)cc1,"inconclusive [inhibitor, single point]",
Cn1cc(-c2ccccc2)cc(C#N)c1=O,"inconclusive [activator, partial curve]",
CCOc1cc(NC(=O)c2ccccn2)c(OCC)cc1NC(=O)c1ccccc1,"inconclusive [inhibitor, full curve, poor fit]",
COc1ccc(NC(C)=O)cc1S(=O)(=O)N1CCc2ccccc21,,inconclusive: 20.9% [activator]
CN(C1CCCCC1)S(=O)(=O)c1ccc(Cl)c(C(=O)O)c1,"inconclusive [inhibitor, single point]",
O=C(Nc1ccc(Oc2cccc(C(F)(F)F)c2)nc1)c1ccccc1,"inconclusive [inhibitor, full curve, poor fit]",
CCC(C)N(C)Cc1cccc(C2(O)CCN(S(=O)(=O)c3ccc(F)c(C)c3)CC2)c1 (stereo not given),"inconclusive [inhibitor, single point]",
Cc1cccc(N2CC(C(=O)Nc3nnc(SCC(=O)Nc4cc(C)on4)s3)CC2=O)c1 (stereo not given),inactive,
CC(C)NS(=O)(=O)c1ccc(CCC(=O)N2CCCC2)cc1,"inconclusive [inhibitor, full curve, poor fit]",
CCOC(=O)c1ccccc1NC(=O)c1ccc2c(=O)n3c(nc2c1)CCCCC3,"inconclusive [inhibitor, single point]",
Cc1ccc(C(=O)N2NC(c3ccccc3F)C3C(=O)N(c4cccc(C)c4)C(=O)C32)cc1 (stereo not given),"inconclusive [inhibitor, single point]",
COc1ccccc1-c1cc(C(=O)Nc2ccc(F)cc2F)no1,inactive,
O=C(Cc1cc(=O)[nH][nH]1)N/N=C/c1cccc(Cl)c1Cl,"inconclusive [inhibitor, full curve]",
COC(=O)[C@@]1(Cc2ccc(F)cc2)[C@H]2c3cc(C(=O)N(C)C)n(Cc4ccccc4)c3C[C@H]2CN1C(=O)c1ccccc1,inactive,
O=C(NCCOc1ccccc1F)Nc1ccc(Br)cc1,,inconclusive: -17.8% [inhibitor]
CC[C@@H](C)[C@H](NC(=O)OC(C)(C)C)c1nnc(S(=O)(=O)Cc2cc(C)ccc2C)o1,"inconclusive [inhibitor, single point]",
CCOC(=O)CN(C)S(=O)(=O)c1ccc(-c2cc(C(=O)OC)sc2C(F)(F)F)cc1,"inconclusive [inhibitor, single point]",
CCCCn1nc(C(=O)OCC(=O)Nc2sccc2C(N)=O)c2ccccc2c1=O,"inconclusive [inhibitor, single point]",
CCN(CC(=O)NCc1ccc(F)cc1)Cc1nc2cc(Cl)ccc2c(=O)[nH]1,"inconclusive [inhibitor, single point]",
CCOC(=O)c1nn(-c2ccc(C)cc2)c(=O)c2c(N)scc12,inactive,
CCCCNC1=CC(=O)C(=O)c2ccccc21,,inconclusive: 19% [activator]
COc1ccc2cc3cc(C(=O)NCCCN4CCc5ccccc5C4)sc3nc2c1,"inconclusive [activator, partial curve]",

SMILES,Potency,"activity change, negative = inhibition"
O=C(Nc1ccc(Cl)cc1)c1cc2nc(C3CC3)cc(C(F)(F)F)n2n1,"inconclusive [activator, single point]",
CCOC(=O)c1cnn2c(C(F)(F)F)cc(-c3cn(C)nc3C)nc12,"inconclusive [activator, single point]",
COc1cccc(/C=N/Nc2nc3ccccc3n3cnnc23)c1,,inconclusive: -17.4% [inhibitor]
CC(=O)c1ccc(Nc2cc(C)nc3c(C)cc(C)cc23)cc1,"inconclusive [inhibitor, single point]",
CCOCCCNC(=O)c1c[nH]c2cc(OC)ccc2c1=O,,inconclusive: 16.5% [activator]
COC(=O)c1ccc(NC(=O)c2snnc2-c2ccccc2)cc1,"inconclusive [inhibitor, single point]",
Cc1cccc(N2CC(C(=O)OCC(=O)c3ccc(OC(=O)c4cccs4)cc3)CC2=O)c1C (stereo not given),"inconclusive [inhibitor, single point]",
FC(F)(F)c1cc(-c2ccco2)nc(-n2nnc3ccccc32)n1,"inconclusive [activator, single point]",
CCCCCCCSc1nnc(-c2ccccc2N)c(=O)[nH]1,"inconclusive [inhibitor, single point]",
CC1(C)CN(c2ccc(-c3ccnc4ncnn34)cc2)C1=O,"inconclusive [activator, partial curve]",
CCOc1ccc(NC(=O)c2ccc(NC(=S)NC3CCCCC3)cc2)cc1,"inconclusive [inhibitor, full curve]",
COc1ccc(NC(=O)Nc2sc(NS(=O)(=O)c3ccccc3)nc2C)cc1,inactive,
COc1ccc(Cn2nnnc2C(c2cc3cc(C)cc(C)c3[nH]c2=O)N2CCOCC2)cc1 (stereo not given),"inconclusive [activator, single point]",
CCC(C)NCC(=O)Nc1ccc(S(N)(=O)=O)cc1 (stereo not given),,inconclusive: 16.6% [activator]
Fc1cccc2sc(Nc3nc4cc5c(cc4s3)OCO5)nc12,,inconclusive: 19.6% [activator]
Cc1ccc(-c2nc3ccccn3c2Nc2ccccc2)o1,inactive,
O=C(NCC1(c2ccccc2)CCCC1)c1cccc(Br)c1,"inconclusive [inhibitor, partial curve]",
CCc1ccccc1OCC(=O)N(CC)CC(=O)NCc1ccc(F)cc1,"inconclusive [inhibitor, single point]",
Cc1ccc2c(CNCc3ccco3)cc(=O)oc2c1,"inconclusive [inhibitor, single point]",
c1ccc(N2CCN(Cc3cnc(N4CCOCC4)s3)CC2)cc1,"inconclusive [inhibitor, partial curve]",
Cc1nnc(-c2cccc(C(F)(F)F)c2)nc1N1CCOCC1,,inconclusive: 15.4% [activator]
C=CCN(CC=C)C(=S)NC(=O)c1ccc(C)c(Br)c1,"inconclusive [inhibitor, single point]",

SMILES,Potency,"activity change, negative = inhibition"
O=C(CCN1CCN(CC(=O)Nc2ccccc2Cl)CC1)Nc1ccccc1F,"inconclusive [inhibitor, single point]",
CC(c1ccccc1)N(CC(=O)NC1CCCCC1)S(=O)(=O)c1cccc(C(F)(F)F)c1 (stereo not given),"inconclusive [inhibitor, full curve, poor fit]",
COc1cc(C)c(Cl)cc1S(=O)(=O)n1ccnc1,inactive,
COc1cc(S(=O)(=O)N2CCN(C(=O)c3ccccc3)CC2)c(OC)cc1Br,"inconclusive [inhibitor, single point]",
COc1ccc(C(=O)OC(COc2ccccc2)Cn2ccnc2)cc1 (stereo not given),"inconclusive [inhibitor, partial curve]",
COC(=O)c1cc2c(s1)-c1cc(F)ccc1OC2,"inconclusive [activator, partial curve]",
COc1ccc(N=c2oc3cc(O)ccc3cc2C(=O)NCC2CCCO2)cc1 (stereo not given),"inconclusive [activator, partial curve]",
COc1ccc(N2CC(C)Cn3c2nc2c3c(=O)[nH]c(=O)n2C)cc1 (stereo not given),"inconclusive [inhibitor, single point]",
NC(=O)N/N=C/c1ccc(N2CCOCC2)s1,"inconclusive [inhibitor, full curve]",
COc1ccc(/C=C2\CCCC(C(=O)C(F)(F)F)=C2O)cc1,,inconclusive: -21.3% [inhibitor]
CN=C(Nc1cc(C)nn1-c1ccccc1)c1ccccc1,"inconclusive [inhibitor, partial curve]",
O=C(O)CC1(CC(=O)Nc2ccc(Oc3cccc(C(F)(F)F)c3)nc2)CCCC1,"inconclusive [inhibitor, full curve, poor fit]",
Cc1onc(-c2ccccc2Cl)c1C(=O)Nc1cccc(-c2nc3ncccn3c2C)c1,"inconclusive [activator, partial curve]",
Cc1c(Cc2ccc3c(c2)OCO3)sc(NC(=O)c2ccccc2)c1C(N)=O,"inconclusive [activator, single point]",
CC(C)[C@H](NS(=O)(=O)c1cccc(C(F)(F)F)c1)C(=O)OCC(N)=O,"inconclusive [inhibitor, partial curve, poor fit]",
C=CCSc1nc(-c2ccc3c(c2)OCO3)cc(C(F)(F)F)c1C#N,"inconclusive [activator, full curve]",
O=C(/C=C/Nc1cccc(F)c1)c1ccco1,inactive,
CC(=O)c1c(C(C)=O)c(C)n(-c2ccc3ncccc3c2)c1C,,inconclusive: 17% [activator]
COC(=O)c1ccccc1NC(=O)COC(=O)c1ccccc1N=Nc1ccc(N(C)C)cc1,"inconclusive [inhibitor, partial curve]",
Cc1ccc(-n2nnnc2SCC(=O)NNC(=O)c2ccco2)cc1C,"inconclusive [inhibitor, single point]",
COc1ccc(C2C(C(=O)N3CCOCC3)=C(C)NC3=C2C(=O)CC(C)(C)C3)c(OC)c1 (stereo not given),"inconclusive [activator, partial curve]",
